Experimental findings from the RNAGym collection of RNA variant scans (doi:10.7554/elife.90254) are described below.

The source gives no read counts; variants with many changes may rest on few reads.

Sequences and labels used below:
B1: LINE1-mini (parent)
chain: GGCAGAGCUCAACACAGCGUGGCAAAGUGGCUGUGGCUAGACUGCC

This series covers variants of B1. Briefly: self-cleavage, relative activity (ratio to wild type); higher = more cleavage; in vitro, sequencing; the parent is a self-cleaving ribozyme.
For GGCAGAGCUCAACAAAGCGUGGCAAAGUGGCUGUGGCAGGAGUGCC [C15A U38A A39G C42G], the self-cleavage turned out to be 0.02.

With GGCAGAGCUCAACAAAGCGUAGCAAAGUGGCUGUGGCUACACUGCC [C15A G21A G40C], the self-cleavage was 0.02.

Regarding GGCAGAGCUCAACAAAGCGUAGCAAAGUGGCUGUGGCUAGACUUUC [C15A G21A G44U C45U], the self-cleavage was 0.04.

For the variant GGCAGAGCUCAACAGCGCGUGGCAAAGUGGCUGCGGCUAUACUGCC [C15G A16C U34C G40U], the self-cleavage was 0.17.

Turning to GGCAGAGCUCAACAAAGCGCGGCAUAGUGGCUGUGGCUAGACUGCC [C15A U20C A25U], the self-cleavage worked out at 0.05.

For GGCAGAGCUCAACAAAGCAUGGCAAAGUGGCUCUGGCUAGACUGCC [C15A G19A G33C], the self-cleavage was found to be 0.03.

With GGCAGAGCUCAACAAAGCGUGGCAAAUGGGCUGUGGCUGGACUGCC [C15A G27U U28G A39G], the self-cleavage is 0.01.

Consider GGCAGAGCUCAACAAAGCGUGGCAAAGUAGCUGUGGCUAGACCGCC [C15A G29A U43C], for which the self-cleavage stood at 0.06.

GGCAGAGCUCAACAAAGCGUGACAAAGUGGCUGUGGCCUGACUGCC [C15A G22A U38C A39U]: the self-cleavage was found to be 0.04.

For the variant GGCAGAGCUCAACAAAGCGUGGCAAAGUGGCUUUGGCUAGACUGCA [C15A G33U C46A], the self-cleavage amounted to 0.25.

Consider GGCAGAGCUCAACAAAGCCUGGCAAAGUGGCUGCGGCUAGACUGUC [C15A G19C U34C C45U], for which the self-cleavage worked out at 0.04.

As to GGCAGAGCUCAACAAAGCGUGGCAAAGUGGCUGUGGCCAUACAGCC [C15A U38C G40U U43A], the self-cleavage was determined as 0.06.

Turning to GGCAGAGCUCAACAAAGCCUGGCAAAGUGGCUGUUGCUAGACUGCC [C15A G19C G35U], the self-cleavage is 0.03.

In the case of GGCAGAGCUCAACAAAGCGUGGCAAAGUAACUCUGGCUAGACUGCC [C15A G29A G30A G33C], the self-cleavage is 0.03.

Turning to GGCAGAGCUCAACAAAGCGUGGCAAAAUGGGUGUGGCUAGACUGCC [C15A G27A C31G], the self-cleavage amounted to 0.02.

Turning to GGCAGAGCUCAACAAAUCGAGGCAAAGUGGCUGUGGCUGGACUGCU [C15A G17U U20A A39G C46U], the self-cleavage stood at 0.02.

For the variant GGCAGAGCUCAACAAAUCGUGGCAAAAUGUCUGUGGCUAGACUGUG [C15A G17U G27A G30U C45U C46G], the self-cleavage worked out at 0.03.

For the variant GGCAGAGCUCAACAAAGCGUGGCAAAGUGGCUCUGGCUAGAUUGCC [C15A G33C C42U], the self-cleavage was found to be 0.02.

As for GGCAGAGCUCAACAAAGCGUGACAAAGUGGCUGUGGGUAGACUGCC [C15A G22A C37G], the self-cleavage amounted to 0.03.

On to GGCAGAGCUCAACAAAGCGUGGCAAAGUGGCUGUUGUUCGACUGCC [C15A G35U C37U A39C], for which the self-cleavage worked out at 0.01.

Consider GGCAGAGCUCAACAAAGCGUGGCAAAGUGGCAGUGGCUAGACUGGC [C15A U32A C45G], for which the self-cleavage turned out to be 0.06.

Take GGCAGAGCUCAACAAAGCGUGGCAAAGAGGCUGUGGCUAGACUGCU [C15A U28A C46U]: the self-cleavage is 0.07.

In the case of GGCAGAGCUCAACAAAGCGUGCCAAAGUGGAUGUGGCUAGACUGCC [C15A G22C C31A], the self-cleavage amounted to 0.04.

As to GGCAGAGCUCAACAGCGCGUGGCAAAGUUGCUGUGGCUAGACUGCC [C15G A16C G29U], the self-cleavage amounted to 0.04.

In the case of GGCAGAGCUCAACAGCGCGUGGCAAAUUGUCUGUGGCUAGACUGCC [C15G A16C G27U G30U], the self-cleavage amounted to 0.08.

With GGCAGAGCUCAACAAAGCGUGGCAAAGUGGCUGAGGUUAAACUGCC [C15A U34A C37U G40A], the self-cleavage is 0.02.

GGCAGAGCUCAACAAAGCGUGGCAAAGUGGCUGCGGCAAGACUGCC [C15A U34C U38A]: the self-cleavage is 0.05.

Consider GGCAGAGCUCAACAAAGCGUGGCAAAGUGGCGGUGGCUAGACUGCG [C15A U32G C46G], for which the self-cleavage came to 0.23.

On to GGCAGAGCUCAACAAAGCGUUGCAAAGUGCCUGUGGCUAGACUGCC [C15A G21U G30C], for which the self-cleavage is 0.04.

With GGCAGAGCUCAACAAAUCGUGGCAAAGGAGCUGUGGCCAGACUGCC [C15A G17U U28G G29A U38C], the self-cleavage amounted to 0.02.

Take GGCAGAGCUCAACAAAGCCUGGCAAAGUGGAUGUGGCAAGACUGCC [C15A G19C C31A U38A]: the self-cleavage stood at 0.03.

In the case of GGCAGAGCUCAACAAAGCGAGGCAAAGUCGCUGUGGCUAGACUGCC [C15A U20A G29C], the self-cleavage was 0.42.

As for GGCAGAGCUCAACAAAGCGUGUCAAAGUGGCUGUGGCUAGACUGCG [C15A G22U C46G], the self-cleavage amounted to 0.03.

Consider GGCAGAGCUCAACAAAGCGUGGCAAAGUGGCUGUGACUCGACUGCU [C15A G36A A39C C46U], for which the self-cleavage stood at 0.19.

GGCAGAGCUCAACAAAGCGUGGCAAAGCGGCUGUGGCUCGACUGCC [C15A U28C A39C]: the self-cleavage came to 0.01.

Regarding GGCAGAGCUCAACAAAGCGUUGCAAAGUGGCUGUAGCUAGACUGCC [C15A G21U G35A], the self-cleavage was 0.04.

GGCAGAGCUCAACAAAGCGUGGCAAAGUGGCUGGGACUAGACUGCA [C15A U34G G36A C46A]: the self-cleavage is 0.06.

For the variant GGCAGAGCUCAACAAAGCGUGGCAAAGUGGCUCUGGGUCGACUGCC [C15A G33C C37G A39C], the self-cleavage worked out at 0.03.

As for GGCAGAGCUCAACAAAUCGUGGCAAAGUGGCUGUGGCUAAACUGCC [C15A G17U G40A], the self-cleavage was determined as 0.1.

As to GGCAGAGCUCAACAAAGCGUGGCAAAGUGAAUGUGGCUAGACUGCC [C15A G30A C31A], the self-cleavage came out at 0.01.

On to GGCAGAGCUCAACAAAGCGUGGCAAAGAGGCUAUGGCUAGACUGCC [C15A U28A G33A], for which the self-cleavage was determined as 0.11.

In the case of GGCAGAGCUCAACAAAGCUUGGCAAAGUGGCUGUGGCUAGCCUGCC [C15A G19U A41C], the self-cleavage is 0.05.

Turning to GGCAGAGCUCAACAAAGCGUGGCAAAGUGCCUGUGGCUAGACUGCA [C15A G30C C46A], the self-cleavage turned out to be 0.03.

For GGCAGAGCUCAACAAAGCGUCGCAAAGUGCCUGUGGAUAGACAGCC [C15A G21C G30C C37A U43A], the self-cleavage stood at 0.03.

For the variant GGCAGAGCUCAACAAAGCGUGCCAAAGUGGCUGUGGCUAAACUGCA [C15A G22C G40A C46A], the self-cleavage came to 0.04.

GGCAGAGCUCAACAAAGCGAGACAAAGUGGCUGUUGCUAGCCUGCC [C15A U20A G22A G35U A41C]: the self-cleavage amounted to 0.03.

Turning to GGCAGAGCUCAACAAAGCGUGGCAAAUAGGCUGUGGCUAGACUGCC [C15A G27U U28A], the self-cleavage came to 0.31.

In the case of GGCAGAGCUCAACAAAGCGUGGCAAAAUGGCUGUGGCUUGACUGCC [C15A G27A A39U], the self-cleavage came to 0.07.

In the case of GGCAGAGCUCAACAAAGCGUUGCAAAGUGGCUUUGGCUAGACUGCC [C15A G21U G33U], the self-cleavage was determined as 1.03.

As to GGCAGAGCUCAACAAAGCAUGGCAAAGUGGCUGUGGCCAGACUGCC [C15A G19A U38C], the self-cleavage turned out to be 0.04.

As to GGCAGAGCUCAACAAAGCGUGGCAAAGUUGCUGGUGCUAGACUGCC [C15A G29U U34G G35U], the self-cleavage was 0.05.

On to GGCAGAGCUCAACAAAGCGUGGCAAAGUUUCCGUGGCUAGACUGCC [C15A G29U G30U U32C], for which the self-cleavage amounted to 0.03.

Turning to GGCAGAGCUCAACAAAGCGUGGCAAAGCGGCUGUGGCUACACUGCC [C15A U28C G40C], the self-cleavage amounted to 0.15.

With GGCAGAGCUCAACAAAGCGUUGCGAAGUGGCUGUGGCUAGACUGCC [C15A G21U A24G], the self-cleavage was determined as 0.14.

For GGCAGAGCUCAACAAAGCGUUCCAAAGUGGCUAUGGCUAGACUGCC [C15A G21U G22C G33A], the self-cleavage was 0.07.

Take GGCAGAGCUCAACAAAGCUUGGCAAAGUGGCUGUGCCUAGCCUGCC [C15A G19U G36C A41C]: the self-cleavage is 0.02.
